A lower IC50 marks a more sensitive line; fits outside the tested doses are given as limits. For AUC the same curve is integrated over the 256-fold range of doses and scaled to a fraction; the more sensitive the line, the further below 1. For part of these data: Where the top dose is marked as inferred, it was calculated from the reported fits. For part of these data: Drugs with an entry number were screened twice under separate entries, and the two screens often disagree.
Key:
Assay in all cases: Viability of human cancer cell lines after 72 h of drug (GDSC screen)
Pazopanib = compound: Cc1ccc(Nc2nccc(N(C)c3ccc4c(C)n(C)nc4c3)n2)cc1S(N)(=O)=O [Pazopanib]; conditions: top dose 8 µM
Experimental: (§1)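 Human cancer cell lines in 384-well plates, medium with 10% serum, drug for 72 h over a 256-fold dose range (nine 2-fold or five 4-fold steps up to the top dose). Adherent lines were fixed and stained with the nucleic acid dye Syto60, suspension lines read with resazurin; signal relative to control wells, capped at 0 and 100%. One two-parameter sigmoid per drug and line, fitted in a mixed model over all curves with the slope shared within a line.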

GDC0941 = compound: CS(=O)(=O)N1CCN(Cc2cc3nc(-c4cccc5[nH]ncc45)nc(N4CCOCC4)c3s2)CC1 [GDC0941]
Experimental: as §1

AR-42 = compound: CC(C)[C@H](C(=O)Nc1ccc(C(=O)NO)cc1)c1ccccc1 [AR-42]; conditions: top dose 5.12 µM; top dose inferred
Experimental: as §1

[1] = top dose 4 µM, screen: GDSC drug entry 1527, top dose inferred

Cell Line	AUC (Pazopanib)	IC50 (Pazopanib) [nM]	AUC (GDC0941; [1])	IC50 (GDC0941; [1]) [nM]	AUC (AR-42)	IC50 (AR-42) [nM]	AUC (GDC0941; screen: GDSC drug entry 1058)	IC50 (GDC0941; screen: GDSC drug entry 1058) [nM]
769-P (kidney, adherent)	0.954	> 8000	0.711	1050	0.457	242		
786-0 (kidney, adherent)	0.903	> 8000	0.91	> 4000	0.555	445		
A172 (glioma, adherent)	0.802	3780	0.924	> 4000	0.628	713		
A204 (rhabdomyosarcoma, adherent)	0.345	164	0.614	564	0.61	705		
A673 (rhabdomyosarcoma, adherent)	0.99	> 8000	0.645	603	0.65	793		
BCPAP (thyroid, adherent)	0.927	> 8000	0.916	> 4000	0.468	265		
BEN (non-small cell lung carcinoma, adherent)	0.862	> 8000	0.922	> 4000	0.659	945		
BFTC-909 (kidney, adherent)	0.929	> 8000	0.725	1070	0.741	1530		
BHY (head and neck, adherent)	0.97	> 8000	0.783	1690	0.538	406		
BICR31 (head and neck, adherent)	0.956	> 8000			0.758	1800		
BPH-1 (prostate, adherent)	0.84	6390	0.654	703	0.403	168		
CAL-54 (kidney, adherent)	0.82	5480	0.626	588	0.571	514		
CAMA-1 (breast, adherent)	0.984	> 8000	0.932	> 4000	0.734	1800		
CHP-134 (neuroblastoma, suspension)					0.422	185		
COLO-792 (melanoma, adherent)	0.987	> 8000	0.749	1280	0.819	2850		
COR-L105 (lung adenocarcinoma, adherent)	0.847	7980	0.81	2690	0.518	361		
COR-L303 (small cell lung carcinoma, suspension)					0.228	53.7		
Caov-3 (ovary, adherent)	0.991	> 8000			0.829	2680		
ChaGo-K-1 (non-small cell lung carcinoma, adherent)	0.899	> 8000	0.884	> 4000	0.783	2540		
GAMG (glioma, adherent)	0.793	3860	0.658	703	0.459	247		
GCT (soft tissue, adherent)	0.942	> 8000	0.905	> 4000	0.964	> 5120		
GP5d (large intestine, adherent)	0.976	> 8000	0.82	1990	0.603	595		

Cell Line	AUC (Pazopanib)	IC50 (Pazopanib) [nM]	AUC (GDC0941; [1])	IC50 (GDC0941; [1]) [nM]	AUC (AR-42)	IC50 (AR-42) [nM]	AUC (GDC0941; screen: GDSC drug entry 1058)	IC50 (GDC0941; screen: GDSC drug entry 1058) [nM]
H2591 (mesothelioma, adherent)	0.81	5870	0.808	2880	0.81	3750		
H2803 (mesothelioma, adherent)	0.892	> 8000			0.561	482		
H2804 (mesothelioma, adherent)	0.941	> 8000			0.676	1050		
H2818 (mesothelioma, adherent)	0.972	> 8000	0.881	> 4000	0.757	1810		
HCC1806 (breast, adherent)	0.981	> 8000	0.931	> 4000	0.598	580		
HLE (liver, adherent)	0.7	1760	0.901	> 4000	0.677	965		
HO-1-N-1 (head and neck, adherent)	0.95	> 8000	0.731	1060	0.649	797		
HPAC (pancreas, adherent)	0.897	> 8000	0.902	> 4000	0.658	1050		
NCI-H522 (lung adenocarcinoma, adherent)	0.866	> 8000			0.389	149		
NCI-H1573 (lung adenocarcinoma, adherent)	0.985	> 8000			0.603	608		
NCI-H1793 (lung adenocarcinoma, adherent)	0.982	> 8000			0.838	> 5120		
NCI-H2030 (lung adenocarcinoma, adherent)	0.965	> 8000			0.671	1030		
PC-3 (prostate, adherent)	0.972	> 8000			0.567	509		
SN12C (kidney, adherent)	0.92	> 8000			0.654	907		
SNU-175 (large intestine, suspension)					0.436	216		
SNU-475 (liver, adherent)	0.988	> 8000			0.638	731		
SNU-1040 (large intestine, adherent)			0.893	> 4000	0.978	> 5120		
SU-DHL-10 (B-cell lymphoma, suspension)			0.784	1220	0.09	30		
SW1116 (large intestine, adherent)			0.898	> 4000	0.503	327		
UACC-893 (breast, adherent, top dose 2 µM)							0.937	> 2000
UWB1.289 (ovary, adherent, top dose 4 µM)							0.779	2580
VA-ES-BJ (soft tissue, adherent, top dose 4 µM)							0.761	1490

Cell Line	AUC (Pazopanib)	IC50 (Pazopanib) [nM]	AUC (GDC0941; [1])	IC50 (GDC0941; [1]) [nM]	AUC (AR-42)	IC50 (AR-42) [nM]	AUC (GDC0941; screen: GDSC drug entry 1058)	IC50 (GDC0941; screen: GDSC drug entry 1058) [nM]
VAL (B-cell lymphoma, suspension, top dose 4 µM)							0.761	1430
VCaP (prostate, adherent, top dose 4 µM)							0.941	> 4000
VM-CUB-1 (bladder, adherent, top dose 2 µM)							0.956	> 2000
VMRC-LCD (lung adenocarcinoma, adherent, top dose 4 µM)							0.97	> 4000
VMRC-RCZ (kidney, adherent, top dose 4 µM)							0.889	> 4000
WIL2-NS (lymphoid neoplasm, suspension, top dose 4 µM)							0.963	> 4000
WM35 (melanoma, adherent, top dose 4 µM)							0.749	1310
WM793B (melanoma, adherent, top dose 4 µM)							0.952	> 4000
WM1552C (melanoma, adherent, top dose 4 µM)							0.884	> 4000
WM-115 (melanoma, adherent, top dose 4 µM)							0.689	965
WSU-DLCL2 (B-cell lymphoma, suspension, top dose 4 µM)							0.628	526
WSU-NHL (lymphoid neoplasm, suspension, top dose 4 µM)							0.263	58.3
YAPC (pancreas, adherent, top dose 4 µM)							0.914	> 4000
YH-13 (glioma, adherent, top dose 4 µM)							0.551	347
YKG-1 (glioma, adherent, top dose 4 µM)							0.833	2640
YMB-1-E (breast, adherent)					0.818	4360		
YT (lymphoid neoplasm, suspension, top dose 4 µM)							0.242	52.1
ZR-75-30 (breast, adherent, top dose 4 µM)							0.806	3490
huH-1 (liver, adherent, top dose 4 µM)							0.715	1180
no-11 (glioma, adherent, top dose 4 µM)							0.892	> 4000
